# Data from paper PMC4336329 (PLoS ONE, 2015).
# Out of some 310,000 compounds screened, about 2,200 (0.71%) showed an effect of 50% or more. Effects have a minus sign here. Some of the results follow.
# Biological target: human ether-à-go-go-related gene (hERG) potassium channel (human, UniProt Q12809)
# Experiment: primary screen, population patch clamp on CHO cells stably expressing hERG
# human ether-à-go-go-related gene (hERG) potassium channel, sequence (Q12809 whole entry, looked up): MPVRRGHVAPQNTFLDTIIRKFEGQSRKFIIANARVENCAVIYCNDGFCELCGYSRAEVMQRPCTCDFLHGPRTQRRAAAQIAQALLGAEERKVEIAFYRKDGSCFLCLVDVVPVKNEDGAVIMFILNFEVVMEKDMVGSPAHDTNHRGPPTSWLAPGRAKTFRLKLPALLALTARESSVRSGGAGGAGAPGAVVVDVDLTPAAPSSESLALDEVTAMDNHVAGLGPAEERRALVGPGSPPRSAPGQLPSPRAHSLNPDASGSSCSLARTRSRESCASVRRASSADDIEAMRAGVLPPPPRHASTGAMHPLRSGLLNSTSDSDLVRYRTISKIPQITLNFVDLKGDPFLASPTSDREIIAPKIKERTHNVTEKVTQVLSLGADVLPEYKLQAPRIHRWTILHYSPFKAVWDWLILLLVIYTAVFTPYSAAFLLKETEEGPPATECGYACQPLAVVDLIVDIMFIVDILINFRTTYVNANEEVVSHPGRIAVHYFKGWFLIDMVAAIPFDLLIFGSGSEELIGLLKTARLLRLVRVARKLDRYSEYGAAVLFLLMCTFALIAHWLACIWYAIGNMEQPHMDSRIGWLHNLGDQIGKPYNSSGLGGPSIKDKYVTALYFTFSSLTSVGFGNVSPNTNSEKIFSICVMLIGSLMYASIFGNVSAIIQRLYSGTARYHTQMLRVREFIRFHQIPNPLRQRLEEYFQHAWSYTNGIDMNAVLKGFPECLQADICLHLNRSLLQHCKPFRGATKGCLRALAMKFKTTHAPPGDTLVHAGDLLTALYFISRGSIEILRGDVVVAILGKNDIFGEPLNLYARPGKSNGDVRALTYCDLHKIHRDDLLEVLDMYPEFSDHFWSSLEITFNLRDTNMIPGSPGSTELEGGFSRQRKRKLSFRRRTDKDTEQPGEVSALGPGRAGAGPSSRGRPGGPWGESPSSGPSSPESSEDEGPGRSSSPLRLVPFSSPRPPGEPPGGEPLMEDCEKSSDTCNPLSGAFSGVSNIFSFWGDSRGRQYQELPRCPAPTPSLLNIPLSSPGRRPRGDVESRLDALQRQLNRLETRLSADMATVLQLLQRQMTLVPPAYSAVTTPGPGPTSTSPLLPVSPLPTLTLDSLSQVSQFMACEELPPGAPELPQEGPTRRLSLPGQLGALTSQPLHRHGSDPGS
row,Structure (SMILES),"hERG current change (%, negative = inhibition) at 1uM"
1,COc1ccc(N2CCN(CC(=O)N3N=CCC3c3ccccc3)CC2)cc1 (stereo not drawn),2.09%
2,CN(C(=O)c1c(Cl)cnn1C)C12CC3CC(CC(C3)C1)C2,7.8%
3,Cc1cc(OC(=O)c2c(C)cc(O)cc2O)cc(O)c1C(=O)O,14.8%
4,O=C(NCCCN1CCCC1)c1cc2c(Cl)nc3ccccc3c2s1,11.4%
5,O=C(COC(=O)c1ccc(NS(=O)(=O)c2ccc(F)c(F)c2)cc1)NCC1CCCO1 (stereo not drawn),4.24%
6,O=C(NC1CCN(C(=O)NC2CCCCC2)CC1)c1ccco1,9.4%
7,CN(C)c1nc(N)nc(/C(C#N)=C/C2CC3C=CC2C3)n1 (stereo not drawn),9.42%
8,Cc1nc2ccccc2c2oc(C(=O)NCC3CCCO3)cc12 (stereo not drawn),-8.21%
9,COC(=O)c1c(NC(=O)c2ccn(C)n2)sc2c1CCC2,8.56%
10,CC1CCc2c(c3ccccc3n2C(=O)CCl)C1 (stereo not drawn),10.9%
11,COc1ccc(NC(=O)c2c(NC(=O)CNCc3ccco3)sc3c2CCC3)cc1,18.5%
12,O=[N+]([O-])c1cc(S(=O)(=O)Nc2cccc(C(F)(F)F)c2)ccc1-n1nnc2ccccc21,-3.95%
13,Clc1ccc2[nH]c3c(NCC4CCCO4)ncnc3c2c1 (stereo not drawn),-3.05%
14,O=C(CSc1cccc[n+]1[O-])c1cc2ccccc2o1,-0.219%
15,CC(=O)Nc1cccc(-c2csc(Nc3ccccn3)n2)c1,7.88%
16,CSc1nc2nc3c(cc2c(=O)[nH]1)C(O)Oc1ccc(C)cc1-3 (stereo not drawn),5.33%
17,CS/C(=C\[N+](=O)[O-])Nc1ccc(F)cc1,15.6%
18,CCCCn1cnc2c(c1=O)c1nc3ccccc3nc1n2Cc1ccc2c(c1)OCO2,14.8%
19,COc1cc(OC)c(N(C)S(=O)(=O)c2cccc(C(=O)OCC(=O)c3c[nH]c4ccccc34)c2)cc1Cl,13.2%
20,O=C(c1cccn2c(=O)c3cc(Cl)ccc3nc12)N1CCOCC1,-20.8%
21,Cc1nc(S/C(=C/c2ccc(-c3cc(Cl)ccc3C)o2)C(=O)O)n[nH]1,8.81%
22,Cn1cc(C(=O)N2CCN(c3ccccc3)CC2)c(=O)c2cc(S(=O)(=O)N3CCOCC3)ccc21,13.9%

row,Structure (SMILES),"hERG current change (%, negative = inhibition) at 1uM"
1,CCSc1nnc([C@H](C)NC(=O)OC(C)(C)C)o1,2.99%
2,CCCCOc1ccc(Nc2nc(C)cc(C)c2C#N)cc1,-0.768%
3,CCOC(=O)c1ccc(NC(=S)Nc2ccc3[nH]c(=O)[nH]c3c2)cc1,8.34%
4,Cn1c2ccccc2c2c(C(=O)N3CCN(c4ccccn4)CC3)cn(C3CCCC3)c(=O)c21,7.13%
5,Cc1cc(NC(=O)CSCC(=O)OC(C)C(=O)N(C)Cc2ccccc2)no1 (stereo not drawn),1.79%
6,Cc1ccc(C(=O)OCC(=O)Nc2c(Cl)cc(S(N)(=O)=O)cc2Cl)o1,13.8%
7,O=C(O)c1ccc2c(=O)n3c(nc2c1)/C(=C/c1ccc(F)cc1)CC3,18%
8,Cc1ccc(C(=O)OCCOc2cccc(Cl)c2)cc1S(=O)(=O)N1CCOCC1,9.74%
9,O=C1c2ccccc2C(=O)N1CCCCN(C(=O)c1ccc(Cl)s1)c1ccc(Cl)cc1,7.61%
10,Cc1ccc(-n2nnnc2SCC(=O)Nc2ccc(N3CCN(C)CC3)cc2)c(C)c1,-1.09%
11,CC(C)[C@H](NC(=O)N1c2ccccc2NC(=O)[C@@H]1C(C)C)C(=O)N[C@@H](Cc1c[nH]c2ccccc12)C(=O)O,3.59%
12,O=C(Nc1ccccc1O)c1cc(S(=O)(=O)N2CCOCC2)ccc1Cl,0.208%
13,Cc1ccc(Nc2cc(C)nn2-c2nc(C)cc(=O)[nH]2)cc1,7.46%
14,CCC(C)CCN1C(N(C)C)=NC[C@@H]1CC(C)C (stereo partly drawn),5.17%
15,COc1cccc(OC)c1OCc1cc(C2C3CCCC=C3C(C#N)=C(N)C2(C#N)C#N)c(C)cc1C (stereo not drawn),13.5%
16,c1ccc(Cn2cc(CN3CCCO3)c(-c3ccc4c(c3)OCO4)n2)cc1,24.8%
17,CC1CC(C)CN(C(=O)Cn2c(=O)c3cccn3c3cccnc32)C1 (stereo not drawn),-1.89%
18,Cc1ccc(Cl)cc1NC(=O)COC(=O)C12CC3CC(CC(C3)C1)C2,4.17%
19,CC(C)Cn1c(=S)[nH]c2cc(C(=O)O)ccc2c1=O,6.14%
20,COc1ccc(CNC(=O)COC(=O)CCOc2ccc(C)cc2)cc1,13.5%
21,O=C1COc2ccc(C(=O)COC(=O)c3cc(S(=O)(=O)N4CCOCC4)ccc3F)cc2N1,10.8%
22,CCCCSc1nnc(NC(=O)CCc2ccccc2)s1,-3.68%

row,Structure (SMILES),"hERG current change (%, negative = inhibition) at 1uM"
1,CCOc1ccc(C(=S)N2CCCC2)c(OCC)c1,7.44%
2,Cc1ccc(Nc2c(-c3ccc(C)o3)nc3cnccn23)cc1,9.32%
3,COc1ccc(-n2c(-c3ccco3)nc3c(cnn3-c3ccc(C)cc3)c2=O)cc1,2.82%
4,Cc1cccc(N(CC(=O)Nc2c(C)n(C)n(-c3ccccc3)c2=O)S(C)(=O)=O)c1C,0.135%
5,Cc1cc(=O)[nH]c(N/N=C/c2ccc(O)c(O)c2)n1,11.5%
6,Cc1ccc2c(c1)N(CC(=O)N1CCCc3ccccc31)C(=O)CO2,-11.6%
7,CN1CCN(C2Cc3cc(F)ccc3Sc3ccc(Cl)cc32)CC1.O=C(O)/C=C\C(=O)O (stereo not drawn),10.8%
8,C/C(O)=C(\C#N)c1nc2ccccc2[nH]1,-1.56%
9,Cc1ccccc1NC(=S)NC12CN3CN(CN(C3)C1)C2,12.2%
10,CCCCN(C(=O)c1ccc2c(c1)OCCO2)c1c(N)n(CC(C)C)c(=O)[nH]c1=O,-11.9%
11,O=C(NCc1ccco1)c1sc2cc(Cl)ccc2c1Cl,12.7%
12,COc1ccc(C2CC(C(F)(F)F)n3nc(C(=O)NCCN4CCOCC4)cc3N2)cc1 (stereo not drawn),-11.1%
13,Cl.NCCCCNCCCN,13.9%
14,O=c1cc(-c2ccccc2O)nc(-c2ccccc2)[nH]1,17.7%
15,COc1cc(C(=O)Nc2cccc(-c3nc4cc(C)ccc4o3)c2C)cc(OC)c1OC,13.1%
16,O=C1NC(=Nc2ccccc2Cl)S/C1=C\c1cccc([N+](=O)[O-])c1,7.71%
17,NC(=S)Nc1cc(Cl)ccc1Cl,6.1%
18,Cc1ccccc1NC(=O)c1sc(Cl)nc1C,14.3%
19,CSc1nc2ccccc2nc1N(C)S(=O)(=O)c1ccc(C)cc1,8.27%
20,CC1(C)NC(=O)N(CCCC(=O)Nc2ccc(C(F)(F)F)cc2)C1=O,3.39%
21,COC(=O)C(O)(CC(=O)c1ccc(OC)cc1)C(F)(F)F (stereo not drawn),10.8%
22,CC(=O)Oc1ccc(C(=O)[C@H]2[C@H]3C(=O)N(c4ccccc4)C(=O)[C@H]3[C@@H]3C=CC=NN32)cc1,16.4%

row,Structure (SMILES),"hERG current change (%, negative = inhibition) at 1uM"
1,CC(C)OC(=O)c1c(NC(=O)c2cnn3c2NC(c2ccccc2)CC3C(F)(F)F)sc2c1CCCC2 (stereo not drawn),3.79%
2,COC(=O)COc1cc(C)cc2oc(=O)c3c(c12)CCCC3,-4.18%
3,COc1cccc(NC(=O)N2CCN(c3cccc(C)c3)C(C)C2)c1 (stereo not drawn),0.112%
4,Cc1cc(C)c(C)c(S(=O)(=O)N2CCC(C(=O)NCC(c3ccccc3)N(C)C)CC2)c1C (stereo not drawn),0.427%
5,CSc1ccc(CN(C)CC(=O)Nc2ccccc2Br)cc1,20.3%
6,O=C(CN(C(=O)Cn1nnc(-c2ccc(F)cc2)n1)c1cnc2ccccc2c1)NCC1CCCO1 (stereo not drawn),7.32%
7,Cl.O=C(COc1ccc(F)cc1)OCCN1CCOCC1,8.2%
8,Cc1ccc(C(=O)NCc2ccc3c(c2)OCO3)cc1S(=O)(=O)N1CCOCC1,-13.6%
9,CC(C)OC(=O)Nc1ccc(Oc2c(F)c(F)c(F)c(F)c2F)cc1,-9.95%
10,CCCc1cc(CN(C)C(=O)CC2C(=O)NCCN2Cc2ccccc2C)[nH]n1 (stereo not drawn),12.4%
11,Cc1ccc2oc(-c3cccc(NC(=S)NC(=O)c4cccs4)c3)nc2c1,11.9%
12,CCCCc1ccc(NC(=O)N[C@@H](C)C(=O)O)cc1,3.46%
13,Cc1cccc(N=Nc2c(C)[nH]n(C(N)=S)c2=O)c1C,13.5%
14,CCCCCCC(C)n1cc(C(C)=O)c(=O)n(C)c1=O (stereo not drawn),0.513%
15,COc1ccccc1NS(=O)(=O)c1ccc(O)cc1,-0.976%
16,C=CCN(CC(=O)NCC1CCCO1)C(=O)CCC(=O)Nc1cc(C)on1 (stereo not drawn),8.44%
17,C=C(C)C(=O)OCC(O)COc1ccc(C(C)(C)c2ccc(OCC(O)COC(=O)C(=C)C)cc2)cc1 (stereo not drawn),4.91%
18,O=C(CCN1C(=O)/C(=C/c2ccc(F)cc2)SC1=S)Nc1cc([N+](=O)[O-])ccc1O,12.1%
19,O=c1ccc(-c2ccccc2)n[nH]1,19.8%
20,Cc1cc(-c2ccc(S(=O)(=O)N(C)c3ccc(C)c(C)c3)s2)on1,15.7%
21,NS(=O)(=O)c1ccc(CCNC(=O)CSc2nc3ccccc3c3nc(CCN4CCCCC4)nn23)cc1,6.63%
